# From the supplement of paper PMC11417369
# The list shows a part of the results.
# System: PF3D7_0420300 AP2 domain 1 (GST-tagged)
# Experiment: gcPBM binding intensity (ln(normalized median fluorescence intensity)); higher = stronger DNA binding
# Method in brief: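 Binding intensity is defined as the maximum Masliner-normalised natural-log median intensity across replicate spots for either probe orientation. It was measured on an Agilent 4 × 180k array of primer-extended double-stranded 36-bp intergenic genomic probes and negative controls, to which GST-tagged P. falciparum DNA-binding domains made in E. coli were applied for 1 h in 1× PBS with 1% milk, 0.2 mg/ml BSA, 0.5% salmon testes DNA and 0.03% Triton X-100. Detection was by Alexa488 anti-GST antibody and scanning at 488 nm.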
row,Sequence,gcPBM binding intensity (ln)
1,GTATATGAATAATATTTTATGGTAATTTTTTTTTTT [XGTACX_negctrl_site512],9.22
2,TTTTTTTTTTCAAATACATGCATTTATGTATAATAC [TGCATGCA_site722],8.96
3,TAGGAAAAAAATACAGTGCAATTTTTATATAAATAA [GTGCAC_site9979],9.11
4,TTTTTTTTTTTTTTGTGTACTAATATTATAAATTTT [XGTACX_site4405],8.94
5,TACATATTTTATAACTGTACTTTTTTATTATCCAAT [XGTACX_site5396],9.39
6,TTTATATAAATCAAATGTACATATTCCAAATATATA [XGTACX_site8515],9.06
7,TTTTGTTATTTTTCAGTGCAATATGATAATAATATA,9.17
8,GAATCCTTAATATGAACACACAAATATATTACCCAT [CACACA_site186],9.6
9,AGAATTTTATTATATTGTACTTTTTATAAACCTTGT [XGTACX_site7495],9.19
10,TCTTTTTAACAAAAAAAAAAAAAAAAAAAAAAATTA [CACACA_negctrl_site1637],8.72
11,TGCTTATTTAGAATTGTGCACAGCGAATATTCTGTT,9.18
12,TACATTTATACTACTGCATTCAAAAAAAATAAAAAA [TGCATGCA_negctrl_site157],8.94
13,TATAAAAAAATATATATATATATTATATGTGTAGAA [TGCATGCA_negctrl_site391],9.3
14,ATTTATTTGAAGAATTGTACTAAATTATATAGCGGT [XGTACX_site4998],9.24
15,TATATCAAAATACATACACACATTTGTATTTACATT [CACACA_site5485],9.55
16,ATTTTAATTTGTTATACACACACAAAAAAAATTATA [CACACA_site9306],9.51
17,TTTTTTTTTAATCATGCACACTGTTAAAAGAATAAA [CACACA_site4817],8.84
18,AGAAAAGATAAAAATAGTACATATATATTTACTTAT [XGTACX_site7820],9.22
19,TATATTATTTTTAGAAGTACTTATTGTTATAATTCT [XGTACX_site1015],9.18

row,Sequence,gcPBM binding intensity (ln)
1,CTCCTTTCAAAAAAATGTACATGTTTACATTTCAAG [XGTACX_site7342],8.99
2,TTATATATAATATGACGTACAATTATACATTTTATG [XGTACX_site7598],9.15
3,ATAAATATTTATAACAGTACATATTTACTATCCTAA [XGTACX_site4497],9.14
4,ACGATTAAATCGATAATACACACTAAATGTAAAACA [CACACA_site119],9.36
5,TATACACATATTTTTACACACATATTTTTTCATATA [CACACA_site7244],9.87
6,TGAATATTCATGTGTGTGCGCATGTTGTTAGACCAT [GTGCAC_site9869],9.69
7,TAAATACATTTATGTACACACACATAGATGTATATT [CACACA_site5618],9.52
8,TGTTTTCTTGATTATTGTACTTTAATTAGTAATATG [XGTACX_site8674],9.44
9,AAAAATATTATAAGCACACATATATATATATATATA [CACACA_site2458],9.21
10,TATAATATGTTATATACACACATTATAAAATACACA [CACACA_site6742],9.5
11,TAATAATAAATAAAATGTACATATGAACAAATAAGT [XGTACX_site6710],9.73
12,AAAAAAAAAATTAATTGTACTAAAAAAATATTATAT [XGTACX_site8903],9.1
13,ACTGTCATTTATTGTAGTACGTCAATTTATTACATT [XGTACX_site2749],9.65
14,TGTTACAAAAAATAATGTACTTAATATATATATATA [XGTACX_site1016],9.09
15,TATCTTCATTTTTTTGGTACGCACGCAAATATGGCT [XGTACX_site3107],9.16
16,TTTAATTTTTATATAACACACATATTGGAATTATGT [CACACA_site734],9.26
17,TTTTTTACATACAGAAATATATAATATAAAATAAAT [GTGCAC_negctrl_site278],9.02
18,TTAAATGTGAAGTGAATACACACCTAATAAATATAA [CACACA_site3194],9.18
19,TTATGTATTACCTGCCGTACTTCTAAAATAATTAAA [XGTACX_site1716],9.32

row,Sequence,gcPBM binding intensity (ln)
1,ATATATTTACTTAATACACACAAAAAAAAAAAAAAA [CACACA_site3657],9.13
2,TATAAATTTTGTTTAGCACACACACCGACATACATA [CACACA_site9033],9.85
3,ATATATATATATATATGTACATACATACAATCATAT [XGTACX_site6410],9.32
4,ATGTTGTACAGACACACACACAAAAAAAAAATAAAA [CACACA_site7184],9.93
5,TATAATAGCTTCTTTACACACACCATTTTTTTTTTT [CACACA_site1456],9.87
6,CTTACATATTACATATGTACATATACACCTTATGTC [XGTACX_site4679],9.27
7,ATATATTTTTAATTTGCATGTAGTAAAGCCTTAAAT [TGCATGCA_site593],9.1
8,CATCAAGTGAATTGTTGTACTTTACATTGTTTTTAT [XGTACX_site7261],9.65
9,AATATCAATATTATATGTACTTATAATTTCAATGTA [XGTACX_site2423],9.14
10,TAAATTTATTAATCAAGTACAAAATAAATTTTTATA [XGTACX_site2745],8.91
11,TATATATAGAAACACACACACACATATATATATATA [CACACA_site4116],9.96
12,AAAATTTAATATAATGCACACATAAAAAAAAAATCA [CACACA_site7882],9.43
13,TAAAAAAGTTATATTACACACTTTATTGGTTAACTT [CACACA_site653],9.35
14,ACATATAAATTATATACACACAATAATATATATATA [CACACA_site1384],9.44
15,ATAATGTTTCTTTCAACACACAAAAAATGAACCCAT [CACACA_site4947],9.61
16,TATTTATAAAAAAAATGTACATTTATGTATAAGCTA [XGTACX_site3266],8.99
17,TATATATTATAAAAGAGTACAGAAAGAAAAAAAAAT [XGTACX_site8305],9.54
18,ATATTCAATATATTATGTACACATATATGAGGATAT [XGTACX_site7019],9.29
19,AAACTTTTTTTAAAAACACACATATATATTTATATA [CACACA_site4092],9.22
